The full ranking holds about 81,000 sequences; the median of “one-hybrid fitness for binding NBS DNA” is about -0.1, and the highest 2% start at about 0.36. Some of the results follow.
B1: Caulobacter ParB omega fusion; a variant is named by its letters at X, in order, B8GW30 (parent)
chain: MESVVVGEPGMSEGRRGLGRGLSALLGEVDAAPAQAPGEQLGGSREAPIEILQRNPDQPRRTFREEDLEDLSNSIREKGVLQPILVRPSPDTAGEYQIVAGERAWRAAQRAGLKTVPIMVRELDDLAVLEIGIIENVQRADLNVLEEALSYKVLMEKFERTQENIAQTIGKSXSHVANXMRLLXLPDEVQSYLVSGELTAXHARAIAAAADPVALAKQIIEGGLSVRETEALARKAPNLSAGKSKGGRPPRVKDTDTQALESDLSSVLGLDVSIDHRGSTGTLTITYATLEQLDDLCNRLTRGI

Variants of: B1
Experiment: one-hybrid fitness for binding NBS DNA (the Noc-binding site; scaled: cognate 1, non-cognate 0); higher = stronger binding
Conditions: with NBS DNA site
In short: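 Selection: bacterial one-hybrid in E. coli USO, HIS3 reporter with the site 19 bp from the promoter, 48 hours at 37°C on M9-minus-histidine plus 0.1 mM IPTG and 5 mM 3-AT. Libraries were Caulobacter ParB with four randomised specificity codons, sequenced on Illumina before and after selection. Fitness is the rescaled log change in variant-to-wild-type read ratio, anchored to the cognate and non-cognate sites.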

Q: Which “one-hybrid fitness for binding NBS DNA” value does the source give for APWV here?
A: The value was ≤ 0.2.

Q: How did the “one-hybrid fitness for binding NBS DNA” value turn out when RAIP was run?
A: The value was ≤ 0.2.

Q: For CDKG, which “one-hybrid fitness for binding NBS DNA” value is on record?
A: The value was ≤ 0.2.

Q: Which “one-hybrid fitness for binding NBS DNA” value does the source give for AGDI here?
A: The value was ≤ 0.2.

Q: Which “one-hybrid fitness for binding NBS DNA” value does the source give for NSDG here?
A: The value was ≤ 0.2.

Q: WNDT was tested. Which “one-hybrid fitness for binding NBS DNA” value did it give?
A: The value was ≤ 0.2.

Q: With PSWR as the variant, how does the “one-hybrid fitness for binding NBS DNA” value read?
A: Its value is ≤ 0.2.

Q: Which “one-hybrid fitness for binding NBS DNA” value does the source give for AMAT here?
A: Its value is ≤ 0.2.

Q: With SPDP as the variant, how does the “one-hybrid fitness for binding NBS DNA” value read?
A: Its value is ≤ 0.2.

Q: For MEAS, which “one-hybrid fitness for binding NBS DNA” value is on record?
A: Its value is ≤ 0.2.

Q: With QSNQ as the variant, how does the “one-hybrid fitness for binding NBS DNA” value read?
A: Its value is ≤ 0.2.

Q: For KLKL, which “one-hybrid fitness for binding NBS DNA” value is on record?
A: The value was ≤ 0.2.

Q: LGCG was tested. Which “one-hybrid fitness for binding NBS DNA” value did it give?
A: The value was ≤ 0.2.

Q: With MVAP as the variant, how does the “one-hybrid fitness for binding NBS DNA” value read?
A: Its value is ≤ 0.2.

Q: VHAR was tested. Which “one-hybrid fitness for binding NBS DNA” value did it give?
A: Its value is ≤ 0.2.

Q: How did the “one-hybrid fitness for binding NBS DNA” value turn out when KCNQ was run?
A: Its value is ≤ 0.2.

Q: Which “one-hybrid fitness for binding NBS DNA” value does the source give for GAWG here?
A: Its value is ≤ 0.2.

Q: TGTA was tested. Which “one-hybrid fitness for binding NBS DNA” value did it give?
A: The value was ≤ 0.2.

Q: With YRYG as the variant, how does the “one-hybrid fitness for binding NBS DNA” value read?
A: The value was ≤ 0.2.

Q: For PELV, which “one-hybrid fitness for binding NBS DNA” value is on record?
A: Its value is ≤ 0.2.

Q: For RKKQ, which “one-hybrid fitness for binding NBS DNA” value is on record?
A: Its value is 0.242.

Q: How did the “one-hybrid fitness for binding NBS DNA” value turn out when WHST was run?
A: The value was ≤ 0.2.

Q: Which “one-hybrid fitness for binding NBS DNA” value does the source give for AFDG here?
A: Its value is ≤ 0.2.

Q: HVLP was tested. Which “one-hybrid fitness for binding NBS DNA” value did it give?
A: Its value is ≤ 0.2.

Q: QKDM was tested. Which “one-hybrid fitness for binding NBS DNA” value did it give?
A: Its value is ≤ 0.2.

Q: How did the “one-hybrid fitness for binding NBS DNA” value turn out when DHMC was run?
A: The value was ≤ 0.2.

Q: For NMPS, which “one-hybrid fitness for binding NBS DNA” value is on record?
A: The value was ≤ 0.2.

Q: With IQTC as the variant, how does the “one-hybrid fitness for binding NBS DNA” value read?
A: The value was ≤ 0.2.

Q: With MRPF as the variant, how does the “one-hybrid fitness for binding NBS DNA” value read?
A: Its value is ≤ 0.2.

Q: How did the “one-hybrid fitness for binding NBS DNA” value turn out when TKIC was run?
A: Its value is ≤ 0.2.

Q: For RPVS, which “one-hybrid fitness for binding NBS DNA” value is on record?
A: The value was ≤ 0.2.

Q: For WQGS, which “one-hybrid fitness for binding NBS DNA” value is on record?
A: Its value is ≤ 0.2.

Q: How did the “one-hybrid fitness for binding NBS DNA” value turn out when ITMR was run?
A: The value was ≤ 0.2.

Q: QYVY was tested. Which “one-hybrid fitness for binding NBS DNA” value did it give?
A: The value was ≤ 0.2.

Q: TKAM was tested. Which “one-hybrid fitness for binding NBS DNA” value did it give?
A: Its value is ≤ 0.2.

Q: Which “one-hybrid fitness for binding NBS DNA” value does the source give for RIMK here?
A: Its value is ≤ 0.2.

Q: HAPF was tested. Which “one-hybrid fitness for binding NBS DNA” value did it give?
A: Its value is ≤ 0.2.

Q: MWRH was tested. Which “one-hybrid fitness for binding NBS DNA” value did it give?
A: The value was ≤ 0.2.

Q: How did the “one-hybrid fitness for binding NBS DNA” value turn out when TQLG was run?
A: Its value is ≤ 0.2.

Q: How did the “one-hybrid fitness for binding NBS DNA” value turn out when DVRT was run?
A: Its value is ≤ 0.2.

Q: With PRPI as the variant, how does the “one-hybrid fitness for binding NBS DNA” value read?
A: The value was ≤ 0.2.

Q: TCYS was tested. Which “one-hybrid fitness for binding NBS DNA” value did it give?
A: The value was ≤ 0.2.

Q: IAAE was tested. Which “one-hybrid fitness for binding NBS DNA” value did it give?
A: The value was ≤ 0.2.

Q: PLCI was tested. Which “one-hybrid fitness for binding NBS DNA” value did it give?
A: The value was ≤ 0.2.

Q: Which “one-hybrid fitness for binding NBS DNA” value does the source give for EMDS here?
A: Its value is ≤ 0.2.

Q: For QKMY, which “one-hybrid fitness for binding NBS DNA” value is on record?
A: Its value is 0.224.

Q: With NLIR as the variant, how does the “one-hybrid fitness for binding NBS DNA” value read?
A: Its value is ≤ 0.2.

Q: AQAC was tested. Which “one-hybrid fitness for binding NBS DNA” value did it give?
A: Its value is ≤ 0.2.

Q: For AADN, which “one-hybrid fitness for binding NBS DNA” value is on record?
A: Its value is ≤ 0.2.

Q: VHYF was tested. Which “one-hybrid fitness for binding NBS DNA” value did it give?
A: The value was ≤ 0.2.

Q: QTQY was tested. Which “one-hybrid fitness for binding NBS DNA” value did it give?
A: Its value is 0.285.

Q: Which “one-hybrid fitness for binding NBS DNA” value does the source give for HRET here?
A: Its value is ≤ 0.2.

Q: How did the “one-hybrid fitness for binding NBS DNA” value turn out when GYHS was run?
A: The value was ≤ 0.2.

Q: With LDSN as the variant, how does the “one-hybrid fitness for binding NBS DNA” value read?
A: The value was ≤ 0.2.

Q: WSQG was tested. Which “one-hybrid fitness for binding NBS DNA” value did it give?
A: Its value is ≤ 0.2.

Q: With MTFR as the variant, how does the “one-hybrid fitness for binding NBS DNA” value read?
A: The value was ≤ 0.2.

Q: Which “one-hybrid fitness for binding NBS DNA” value does the source give for ARKK here?
A: Its value is ≤ 0.2.

Q: Which “one-hybrid fitness for binding NBS DNA” value does the source give for METL here?
A: Its value is ≤ 0.2.

Q: IVLS was tested. Which “one-hybrid fitness for binding NBS DNA” value did it give?
A: The value was ≤ 0.2.

Q: For QRFR, which “one-hybrid fitness for binding NBS DNA” value is on record?
A: Its value is 0.865.

Q: With QPCS as the variant, how does the “one-hybrid fitness for binding NBS DNA” value read?
A: The value was ≤ 0.2.

Q: With HQYS as the variant, how does the “one-hybrid fitness for binding NBS DNA” value read?
A: The value was ≤ 0.2.

Q: Which “one-hybrid fitness for binding NBS DNA” value does the source give for RCVC here?
A: Its value is ≤ 0.2.

Q: Which “one-hybrid fitness for binding NBS DNA” value does the source give for WIAN here?
A: The value was ≤ 0.2.

Q: How did the “one-hybrid fitness for binding NBS DNA” value turn out when LTYW was run?
A: The value was ≤ 0.2.

Q: Which “one-hybrid fitness for binding NBS DNA” value does the source give for MQAN here?
A: Its value is ≤ 0.2.

Q: KYWR was tested. Which “one-hybrid fitness for binding NBS DNA” value did it give?
A: The value was ≤ 0.2.

Q: With RCPR as the variant, how does the “one-hybrid fitness for binding NBS DNA” value read?
A: Its value is ≤ 0.2.

Q: LEEK was tested. Which “one-hybrid fitness for binding NBS DNA” value did it give?
A: Its value is ≤ 0.2.

Q: How did the “one-hybrid fitness for binding NBS DNA” value turn out when SRNV was run?
A: The value was ≤ 0.2.

Q: YVPE was tested. Which “one-hybrid fitness for binding NBS DNA” value did it give?
A: The value was ≤ 0.2.

Q: KSHR was tested. Which “one-hybrid fitness for binding NBS DNA” value did it give?
A: Its value is ≤ 0.2.

Q: For LTYC, which “one-hybrid fitness for binding NBS DNA” value is on record?
A: The value was ≤ 0.2.

Q: Which “one-hybrid fitness for binding NBS DNA” value does the source give for QTVQ here?
A: Its value is 0.534.

Q: How did the “one-hybrid fitness for binding NBS DNA” value turn out when CCTR was run?
A: The value was ≤ 0.2.

Q: QCKC was tested. Which “one-hybrid fitness for binding NBS DNA” value did it give?
A: The value was 0.452.

Q: For EMTK, which “one-hybrid fitness for binding NBS DNA” value is on record?
A: The value was ≤ 0.2.

Q: With QKAY as the variant, how does the “one-hybrid fitness for binding NBS DNA” value read?
A: The value was ≤ 0.2.

Q: TPYL was tested. Which “one-hybrid fitness for binding NBS DNA” value did it give?
A: Its value is ≤ 0.2.

Q: How did the “one-hybrid fitness for binding NBS DNA” value turn out when RYKW was run?
A: Its value is ≤ 0.2.

Q: How did the “one-hybrid fitness for binding NBS DNA” value turn out when NRHV was run?
A: Its value is ≤ 0.2.

Q: How did the “one-hybrid fitness for binding NBS DNA” value turn out when NTEP was run?
A: Its value is ≤ 0.2.

Q: With GQTV as the variant, how does the “one-hybrid fitness for binding NBS DNA” value read?
A: Its value is ≤ 0.2.

Q: Which “one-hybrid fitness for binding NBS DNA” value does the source give for HMVT here?
A: The value was ≤ 0.2.

Q: For RNVV, which “one-hybrid fitness for binding NBS DNA” value is on record?
A: Its value is ≤ 0.2.

Q: YSRG was tested. Which “one-hybrid fitness for binding NBS DNA” value did it give?
A: Its value is ≤ 0.2.

Q: For AETF, which “one-hybrid fitness for binding NBS DNA” value is on record?
A: The value was ≤ 0.2.

Q: Which “one-hybrid fitness for binding NBS DNA” value does the source give for ITNV here?
A: The value was ≤ 0.2.

Q: HPRW was tested. Which “one-hybrid fitness for binding NBS DNA” value did it give?
A: Its value is ≤ 0.2.

Q: THIY was tested. Which “one-hybrid fitness for binding NBS DNA” value did it give?
A: The value was ≤ 0.2.

Q: With LRSY as the variant, how does the “one-hybrid fitness for binding NBS DNA” value read?
A: Its value is ≤ 0.2.

Q: Which “one-hybrid fitness for binding NBS DNA” value does the source give for TGDR here?
A: The value was ≤ 0.2.

Q: With IHER as the variant, how does the “one-hybrid fitness for binding NBS DNA” value read?
A: The value was ≤ 0.2.

Q: How did the “one-hybrid fitness for binding NBS DNA” value turn out when GVLS was run?
A: The value was ≤ 0.2.

Q: LRRS was tested. Which “one-hybrid fitness for binding NBS DNA” value did it give?
A: Its value is 0.303.

Q: For VATQ, which “one-hybrid fitness for binding NBS DNA” value is on record?
A: Its value is ≤ 0.2.

Q: With MEYY as the variant, how does the “one-hybrid fitness for binding NBS DNA” value read?
A: The value was ≤ 0.2.
